Data reported in publication PMC4336329 (PLoS ONE, 2015).
The whole screen tested about 310,000 compounds, of which about 2,200 (0.71%) showed an effect of 50% or more. Effects have a minus sign here. Some of the results follow.

Each molecule was assayed against human ether-à-go-go-related gene (hERG) potassium channel (human, UniProt Q12809) (assay: primary screen, population patch clamp on CHO cells stably expressing hERG).
Chain of human ether-à-go-go-related gene (hERG) potassium channel (Q12809 whole entry, looked up): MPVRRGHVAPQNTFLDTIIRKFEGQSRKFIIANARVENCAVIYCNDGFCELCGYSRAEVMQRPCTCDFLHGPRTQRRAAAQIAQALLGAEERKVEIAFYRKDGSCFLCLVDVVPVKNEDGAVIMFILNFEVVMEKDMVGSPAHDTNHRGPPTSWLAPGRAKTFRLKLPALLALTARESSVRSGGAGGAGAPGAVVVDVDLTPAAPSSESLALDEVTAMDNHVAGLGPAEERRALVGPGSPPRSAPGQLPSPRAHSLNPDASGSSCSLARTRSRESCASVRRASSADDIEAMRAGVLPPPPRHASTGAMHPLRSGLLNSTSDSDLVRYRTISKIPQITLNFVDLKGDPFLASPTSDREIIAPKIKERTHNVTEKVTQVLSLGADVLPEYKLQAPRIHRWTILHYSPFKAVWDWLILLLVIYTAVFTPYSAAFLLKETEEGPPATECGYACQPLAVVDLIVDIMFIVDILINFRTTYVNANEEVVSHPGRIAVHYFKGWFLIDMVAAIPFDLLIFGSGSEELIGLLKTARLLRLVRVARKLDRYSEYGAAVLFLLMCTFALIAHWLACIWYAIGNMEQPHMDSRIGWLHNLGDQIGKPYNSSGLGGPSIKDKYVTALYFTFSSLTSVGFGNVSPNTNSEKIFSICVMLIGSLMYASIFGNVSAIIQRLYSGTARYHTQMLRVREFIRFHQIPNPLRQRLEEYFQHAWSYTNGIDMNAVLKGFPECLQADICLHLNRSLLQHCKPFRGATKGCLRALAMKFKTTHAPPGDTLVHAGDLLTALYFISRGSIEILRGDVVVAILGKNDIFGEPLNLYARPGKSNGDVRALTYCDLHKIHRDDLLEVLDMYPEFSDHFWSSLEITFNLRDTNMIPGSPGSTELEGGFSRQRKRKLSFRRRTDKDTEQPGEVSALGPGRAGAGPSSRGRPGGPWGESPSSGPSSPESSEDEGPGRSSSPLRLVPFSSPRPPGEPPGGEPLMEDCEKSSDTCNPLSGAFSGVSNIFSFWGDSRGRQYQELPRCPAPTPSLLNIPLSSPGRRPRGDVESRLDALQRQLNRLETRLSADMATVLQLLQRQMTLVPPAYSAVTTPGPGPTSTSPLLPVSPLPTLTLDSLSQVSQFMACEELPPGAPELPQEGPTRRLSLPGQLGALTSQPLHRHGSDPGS

SMILES | hERG current change (%, negative = inhibition) at 1uM [%]
CCOC(=O)C1=C(COC(=O)COc2ccc(C#N)cc2)NC(=O)NC1C (stereo not drawn) | 12.7
COc1cccc(Nc2ncc(C#N)c(N)n2)c1 | 12.9
Cc1ccc(C)c(NC(=O)CSc2nnc(CNC(=O)c3ccco3)o2)c1 | 12.1
O=C(NCCC1CCCCN1S(=O)(=O)c1ccc(Cl)cc1)C(=O)NCc1ccncc1 (stereo not drawn) | 7.06
C=C(C)Cn1c(=O)n(CC2CS2)c2ccccc21 (stereo not drawn) | 9.68
Nc1ccc2c(c1)Nc1ccccc1CC2 | 10.6
CN(C)C1=NCCN1CC1CCCCCC1 | 8.83
CN1CCN(c2ccc(Cl)cc2NC(=O)CCN2C(=O)c3ccccc3C2=O)CC1 | 6.75
COc1ccc(CCN2C(=O)C(Oc3ccccc3C)C2c2ccc3c(c2)OCO3)cc1OC (stereo not drawn) | 8.8
CCN(c1ccccc1)S(=O)(=O)c1ccc(OCC(=O)Nc2cc(C)on2)cc1 | 6.26
O=C(N/N=C/c1ccc([N+](=O)[O-])cc1)c1c[nH]c2ccccc12 | 12.2
CC(=O)N/C(=C\c1ccccc1)C(=O)OCC(=O)NC1CCCC1 | 6.53
Cc1nc2ccc(C(=O)O)cc2[nH]1 | 14.2
COc1ccc(-c2nc3cnccn3c2NC(C)(C)CC(C)(C)C)cc1O | 13.7
COC(=O)c1ccc(OCC(O)CNCC(c2ccc(OC)cc2)N(C)C)c(OC)c1 (stereo not drawn) | 9.05
O=C(NC(=S)Nc1cccc([N+](=O)[O-])c1)C1CCCCC1 | 18.7
Cc1noc(/C=C/N(C)C)c1S(=O)(=O)N1CCCC(C(=O)NC2CCCCC2C)C1 (stereo not drawn) | 2.4
Cc1ccc(-n2c(=O)c3sccc3n(CC(=O)NC3CCCCC3)c2=O)cc1 | 10.5
CCc1nc2ccc(N3CCN(C)CC3)cc2nc1CC | 12.9
COC(=O)c1ccc(C(=O)OC)c(NC(=O)CN2CCN(c3ccc(OC)cc3)CC2)c1 | 14.7
CC(=O)c1ccc(-c2nnc(CCC(=O)N(C)Cc3c(C)nc4ccccn34)o2)s1 | 5.3
O=c1[nH]c(SCc2ccccc2)nnc1-c1ccccc1 | 10.4
Cn1c(=O)c2c(ncn2CC(=O)Nc2nccs2)n(C)c1=O | 6.48
Cc1ccc(Nc2c(-c3ccc(N(C)C)cc3)nc3ncccn23)cc1 | 16.7

SMILES | hERG current change (%, negative = inhibition) at 1uM [%]
CC(C)OCCCNC(=O)c1ccncc1 | -4.16
COc1ccccc1-c1cc(C(=O)N/N=C/c2sccc2C)c2ccccc2n1 | 12.8
CC1CC(CCN)(c2ccccc2)C(C)CN1C.Cl (stereo not drawn) | 11.4
COc1ccc(/C=C2/C(=O)N(Cc3ccco3)C(=O)N(C(C)C)C2=O)cc1 | 17.2
CCN(CC(=O)Nc1cc(Cl)ccc1Cl)C(=O)c1ccc(-n2cccn2)cc1 | -0.183
O=c1cc(-c2ccccc2)nc2nc(SCc3ccccc3)[nH]n12 | 12.4
Cc1ccc(C(=O)NCCn2cc(SCC(=O)Nc3cc(C)on3)c3ccccc32)cc1 | 16.9
CCn1c(C)nc2cc(C(=O)N/N=C/c3ccccc3)ccc21 | 8.41
CSc1ccccc1NC(=O)CSc1n[nH]c(C)c1[N+](=O)[O-] | 9.55
C=CCNc1nc(-c2c(C)nc3sccn23)cs1 | 10.4
CCN1CN(Cc2ccccc2)CNC1=S | 8.09
CC1CCCCC1NC(=O)c1ccc(CNc2c(N3CCCC3)c(=O)c2=O)cc1 (stereo not drawn) | 9.71
COc1ccccc1-c1sc2ccccc2c1-c1ccc(Br)nc1 | 18.1
CC12CCCCN1CCCc1c2[nH]c2ccccc12.Cl (stereo not drawn) | -4.93
O=C(CCCc1nc2ccccc2s1)NC(c1ccccc1)c1ccccc1 | 5.72
Cc1ccccc1Cc1c(C)nc2c(C(=O)N3CCN(Cc4ccc5c(c4)OCO5)CC3)cnn2c1C | 7.01
N#CC(C(=O)NC1CCCCC1)=C1CCCCCC1 | 6.76
CC(C)N1C(=O)C(O)(C2COC(C)(C)CC2=O)c2ccccc21 (stereo not drawn) | 17
Cc1nn(C)c(C(=O)NC(=S)Nc2ccccc2O)c1Cl | -1.47
Cl.O=C(CN1CCN(C(=O)c2cccc(F)c2)CC1)NC1CCCCC1 | 13.4
COc1cc(NC(=O)C(C)Oc2ccccc2)ccc1NC(=O)COc1ccccc1 (stereo not drawn) | 12.9
CCOC(=O)C1=C(COC(=O)/C=C/c2ccc(Cl)cc2)NC(=O)NC1C (stereo not drawn) | 15.6
CCc1nc(CNC(=O)C2CCC(=O)N(CCc3ccc(OC)cc3)C2)cs1 (stereo not drawn) | 10.3
Cc1ccc(NC(=O)C(=O)NCCN2CCN(C(=S)Nc3ccccc3)CC2)cc1 | 12.2

SMILES | hERG current change (%, negative = inhibition) at 1uM [%]
CC(=O)c1cccc(NC(=O)C(NC(C)C)c2ccccc2)c1 (stereo not drawn) | 10
N#Cc1ccc(NC(=O)CN2CCCC2)cc1Cl | 4.66
O/N=C1\CCSc2ccc(F)cc21 | 11.8
CCCc1nnc(SCC(=O)N2CCCCC2)n1CC1CCCO1 (stereo not drawn) | 0.669
O=C(c1cc(-c2ccc(Cl)cc2)on1)N1CCOCC1 | 5.72
C/C(CC(=O)Nc1ccc2c(c1)OCCO2)=N\NC(=O)COc1ccccc1 | 5.16
CC(NC(=O)c1noc2c1CCCCC2)c1ccccc1 (stereo not drawn) | -2.41
Cc1cccc(C)c1OCC1CNC(=O)O1 (stereo not drawn) | 6.47
COc1cc(NC(=O)CN2C(=O)C(c3ccccc3)=NC2(C)C)cc(OC)c1 | 14.2
Cc1cccc(NC(=O)CNC(=O)c2ccc3c(c2)OCO3)n1 | 7.53
O=C(N/N=C/c1cccs1)c1[nH]ncc1Br | 15.5
Cc1ccc(-c2nnn(CC(=O)N(CC3CCCO3)C(C(=O)NCC3CCCO3)c3ccc(F)cc3)n2)o1 (stereo not drawn) | 6.39
Br.Nc1nc(-c2ccccc2)c(N=Nc2ccccc2Cl)s1 | 5.77
CN(Cc1ccccc1)C(=O)CCc1ccccc1 | 13.8
CCCSc1nsc(NC(=O)c2cccnc2OCC)n1 | 10.2
Clc1ccccc1OCc1nn2c(-c3ccncc3)nnc2s1 | -7.59
COC(=O)C1=C(c2cccc(C#N)c2)C[C@@H]2CC[C@H]1N2C(=O)NCc1cc(C)oc1C(F)(F)F | 15.5
CCCc1nc2c(C)cc(C)cc2c(N)c1CC | -19.7
COc1ccc(CCNC(=O)c2ccco2)cc1OC | 6.52
COCCCNCC(O)COc1cccc2[nH]c(C)cc12 (stereo not drawn) | 16.3
Cc1cc([N+](=O)[O-])cc2c1NC(=O)C2(O)N1CCOCC1 (stereo not drawn) | 14
CCOC(=O)c1[nH]c2ccc(OC)cc2c1NC(=O)CCN1CCc2ccccc2C1 | -27.4
CNc1cc(N2CCCC2)ccc1[N+](=O)[O-] | 2.03
Cl.OC(CNCC1COc2ccccc2O1)COc1ccc(Cl)cc1 (stereo not drawn) | -3.92

SMILES | hERG current change (%, negative = inhibition) at 1uM [%]
Cn1c(CC(=O)NC(C)(C)CO)c(Sc2ccccc2)c2ccccc21 | 5.33
Cc1ccc2nsnc2c1S(=O)(=O)Nc1cccc2nsnc12 | -0.485
CC(C)(C)C(=O)Nc1ccc(N2CCCC2)cc1 | 0.159
COc1ccc(Cl)cc1NC(=O)c1cc(-c2ccc(C)cc2O)n[nH]1 | 14.9
CCN(CC)S(=O)(=O)c1ccc(N(C)Cc2cccnc2)nc1 | 4.93
CC1(C)Cc2c(c(N3CCOCC3)nc3sc4c(=O)[nH]cnc4c23)CS1 | 7.64
Cc1ccc(C(=O)N/N=C/c2ccc(-c3ccc(Br)cc3[N+](=O)[O-])o2)o1 | 5.65
CCOC(=O)CNS(=O)(=O)c1ccc(C)cc1 | 1.26
O=C(COc1ccccc1)Nc1ccccc1N1CCN(c2ccccc2)CC1 | 4.83
COCCNC(=S)N(CCc1c(C)[nH]c2ccc(F)cc12)Cc1cccnc1 | 10.9
CCN(CC(=O)NCc1ccc(Cl)cc1)C(=O)CSc1cc(C)ccc1C | 3.79
COc1ccc(OC)c(NC(=O)COC(=O)c2ccc(-n3cnnn3)cc2)c1 | 5.6
COc1ccc(N2C(=O)CC(=O)NC2=O)cc1 | 3.58
CCOc1ccc(Br)c(C2(O)CC(C)N(C)CC2C)c1 (stereo not drawn) | 4.43
Nc1nc(SCC(=O)NC2CCCCC2)n[nH]1 | 15
Cc1cc(C(=O)OCC(=O)Nc2cccc(S(=O)(=O)N(C)C)c2)c2ccccc2n1 | 11
CCOC(=O)CSc1nnc(NC(=O)c2cccc([N+](=O)[O-])c2)s1 | 11.5
COc1ccccc1Cc1nc2ccccc2n1S(=O)(=O)c1ccc(Cl)cc1 | 10.3
COc1ccc(NC(=O)COC(=O)c2ccc(N3CCCC3=O)cc2)cc1OC | 17.1
CN1CCN(CC(=O)Nc2c(C#N)cnn2-c2ccccc2)CC1 | 11.5
COc1ccc(N2CCN(c3ccc(N4C(=O)COCC4=O)cc3[N+](=O)[O-])CC2)cc1 | 1.32
